For one molecule, Kd, koff and kon results are on record in patent US20200048345A1 (INNATE PHARMA, published 2020).

A word on the Kd: it is the equilibrium constant for the complex coming apart. A word on the koff: it is the first-order rate constant of dissociation. As a reminder, the kon is a measure of how fast the partners come together.

One experiment deals with T1, human FcRn (human, UniProt P55899 part only; P61769 part only, limits assumed).
T1 construct: also called recombinant FcRn proteins
Kind of experiment: SPR, recombinant human FcRn immobilized on chip; SCK/Two state reaction.

The target of experiment [1] is T2, Human NKp46 recombinant protein (human, UniProt O76036 22-258, limits assumed).
T2 construct: Soluble analyte in SPR; also called recombinant human NKp46 proteins
T2 sequence (looked up): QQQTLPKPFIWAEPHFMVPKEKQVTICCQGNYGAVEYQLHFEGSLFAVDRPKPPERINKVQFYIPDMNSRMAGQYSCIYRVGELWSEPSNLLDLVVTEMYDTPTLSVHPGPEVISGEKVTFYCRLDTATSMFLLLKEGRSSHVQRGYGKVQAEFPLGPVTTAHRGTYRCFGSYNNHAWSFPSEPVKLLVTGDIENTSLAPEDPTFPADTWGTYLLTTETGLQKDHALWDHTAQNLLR
Kind of experiment: SPR (Biacore T100), captured on Protein-A chip, recombinant human NKp46 6.25-400 nM, 1:1 kinetic model. As to the method:
SPR measurements were performed on a Biacore T100 apparatus (Biacore GE Healthcare) at 25° C. In all Biacore experiments HBS-EP+ (Biacore GE Healthcare) and NaOH 10 mM served as running buffer and regeneration buffer respectively. Sensorgrams were analyzed with Biacore T100 Evaluation software. Protein-A was purchased from (GE Healthcare). Human NKp46 recombinant proteins were cloned, produced and purified at Innate Pharma.
Protein-A proteins were immobilized covalently to carboxyl groups in the dextran layer on a Sensor Chip CMS. The chip surface was activated with EDC/NHS (N-ethyl-N′-(3-dimethylaminopropyl) carbodiimidehydrochloride and N-hydroxysuccinimide (Biacore GE Healthcare)). Protein-A was diluted to 10 μg/ml in coupling buffer (10 mM acetate, pH 5.6) and injected until the appropriate immobilization level was reached (i.e. 2000 RU). Deactivation of the remaining activated groups was performed using 100 mM ethanolamine pH 8 (Biacore GE Healthcare).
Monovalent affinity study was conducted following a regular Capture-Kinetic protocol recommended by the manufacturer (Biacore GE Healthcare kinetic wizard). Seven serial dilutions of human NKp46 recombinant proteins, ranging from 6.25 to 400 nM were sequentially injected over the captured Bi-Specific antibodies and allowed to dissociate for 10 min before regeneration. The entire sensorgram sets were fitted using the 1:1 kinetic binding model.

Chain of human FcRn (P55899 24-297 limits assumed, chain 1 of 2): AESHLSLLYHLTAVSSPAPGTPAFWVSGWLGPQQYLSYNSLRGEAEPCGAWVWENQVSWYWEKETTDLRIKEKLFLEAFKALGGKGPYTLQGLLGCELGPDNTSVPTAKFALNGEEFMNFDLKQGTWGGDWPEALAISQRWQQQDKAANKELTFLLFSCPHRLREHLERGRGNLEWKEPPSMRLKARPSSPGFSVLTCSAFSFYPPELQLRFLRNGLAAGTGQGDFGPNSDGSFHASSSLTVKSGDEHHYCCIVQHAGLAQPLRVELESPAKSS
Chain of human FcRn (P61769 21-119 limits assumed, chain 2 of 2, further chain): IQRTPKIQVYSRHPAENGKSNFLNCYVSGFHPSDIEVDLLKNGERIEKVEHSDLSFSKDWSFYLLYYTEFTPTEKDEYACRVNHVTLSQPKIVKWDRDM

B1: CD19-F14-NKp46-3 (bispecific antibody, human IgG1, kappa)
chain 1: QVQLQQSGAELVRPGSSVKISCKASGYAFSSYWMNWVKQRPGQGLEWIGQIWPGDGDTNYNGKFKGKATLTADESSSTAYMQLSSLASEDSAVYFCARRETTTVGRYYYAMDYWGQGTTVTVSSASTKGPSVFPLAPSSKSTSGGTAALGCLVKDYFPEPVTVSWNSGALTSGVHTFPAVLQSSGLYSLSSVVTVPSSSLGTQTYICNVNHKPSNTKVDKRV[human IgG1 Fc with N297S (EU numbers) cut from this listing]TGSEVQLQQSGPELVKPGASVKISCKTSGYTFTEYTMHWVKQSHGKSLEWIGGISPNIGGTSYNQKFKGKATLTVDKSSSTAYMELRSLTSEDSAVYYCARRGGSFDYWGQGTTLTVSSVEGGSGGSGGSGGSGGVDDIVMTQSPATLSVTPGDRVSLSCRASQSISDYLHWYQQKSHESPRLLIKYASQSISGIPSRFSGSGSGSDFTLSINSVEPEDVGVYYCQNGHSFPLTFGAGTKLELK
chain 2: IQLTQSPASLAVSLGQRATISCKASQSVDYDGDSYLNWYQQIPGQPPKLLIYDASNLVSGIPPRFSGSGSGTDFTLNIHPVEKVDAATYHCQQSTEDPWTFGGGTKLEIKRTVAAPSVFIFPPSDEQLKSGTASVVCLLNNFYPREAKVQWKVDNALQSGNSQESVTEQDSKDSTYSLSSTLTLSKADYEKHKVYACEVTHQGLSSPVTKSFNRGE[human IgG1 Fc with N297S (EU numbers) cut from this listing]
notes: copies: 1 + 1
Consider B1, for which the Kd in the experiment with human FcRn was found to be 14 nM. In experiment [1], the Kd was found to be 62 nM, the koff is 0.00546 s⁻¹ and the kon is 88300 M⁻¹ s⁻¹.
